Laboratory results: patent publication US20240350630A1 (AstraZeneca / MedImmune, published 2024)

T1: rBCMA conjugated with AF647 (UniProt Q02223 1-54, limits assumed, AF647 fluorophore conjugated, site not stated)
T1 construct: also called BCMA-AF647; recombinant BCMA protein labelled with AF647
T1 sequence (looked up): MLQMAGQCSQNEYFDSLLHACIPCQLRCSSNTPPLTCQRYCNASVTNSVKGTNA

B1: 7A8.11 Full-length CAR (other)
chain: EVQLVESGGGLVQPGGSLRLSCEASGFTFSSFWMNWVRQAPGKGLEWVANIKEDGSEKYYVDSVKGRFTISRDNAKNSLYLQMNSLRVEDTAVYYCARALDYYGMDVWGQGTTVTVSSGGGGSGGGGSGGGGSGGGGSYIVMTQTPLSLPVTPGEPASISCRSSQSLLDSDDGNTYLDWYLQKPGQSPQLLIYTLSYRASGVPDRFSGSGSGTDFTLKISRVEAEDVGVYYCMQRIEFPSYTFGQGTKLEIKESKYGPPCPSCPFWVLVVVGGVLACYSLLVTVAFIIFWVKRGRKKLLYIFKQPFMRPVQTTQEEDGCSCRFPEEEEGGCEL[not shown - about 120 residues]
notes: Chimeric antigen receptor on the surface of primary T cells or TREX cells; also called 7A8.11 CAR; 7a8.11 clone
B2: 20H10.1 (other)
chain: QVQLLQSGAEVKKPGASVKVSCKASGYTFTNYYMYWVRQAPGQGLEWMGIINPGGGGTSYAQMFQGRVTMTRDTSTSTVYMELSSLRSEDTAVYYCASPLWVVTAPYYWGQGTLVTVSSGGGGSGGGGSGGGGSGGGGSQPVLTQPPSASASLGASVTLTCTLSSGYSNYKVDWYQQRPGKGPRFVMRVGTGGIVGSKGDGIPDRFSVLGSGLNRYLTIKNIQEEDESDYHCGADHGSGSNFVYVFGTGTKVTVLESKYGPPCPSCPFWVLVVVGGVLACYSLLVTVAFIIFWVKRGRKKLLYIFKQPFMRPVQTTQEEDGCSCRFPEEEEGGCEL[not shown - about 120 residues]
notes: Anti-BCMA CAR on primary T cells; also called 20H10.1 CAR-T
B3: 16C6.6 (other)
CAR chain: QVQLQESGPGLVKPSETLSLTCTVSGGSSSSYYWSWIRQSPGKGLELIGYIYYSGNTNYNPSLKSRVTISVDTSKKQFSLKLSSVTAADTAVYYCARGGYYDSSGYYLDAFDIWGQGTMVTVSSGGGGSGGGGSGGGGSGGGGSQPVLTQPPSASASLGASVTLTCTLSSGYSNYKVDWYQQRPGKGPRFVMRVGTGGIVGSKGDGIPDRFSVLGSGLNRYLTIKNIQEEDESDYHCGADHGSGSNFVYVFGGGTKLTVLESKYGPPCPSCPFWVLVVVGGVLACYSLLVTVAFIIFWVKRGRKKLLYIFKQPFMRPVQTTQEEDGCSCRFPEEEEGGCEL[not shown - about 120 residues]
notes: Anti-BCMA CAR on primary T cells; also called 16C6.6 Full-length CAR; 16C6.6 CAR-T
B4: I09 (other)
chain: EVQLVESGGGLVKPGGSLRLSCAASGFTFSSYSMNWVRQAPGKGLEWVSSISGSSNYIYYADSVKGRFTISRDNAKNSLYLQMNSLRAEDTAVYYCARGGNYFVEYFQQWGQGTLVTVSSGGGGSGGGGSGGGGSGGGGSEIVLTQSPGTLSLSPGERATLSCRASQYISSNYLAWYQQKPGQAPRLLIYGASNRATGIPDRFSGSGSGTDFTLTISRLEPEDFAVYYCQQYSSDPITFGQGTKLEIKESKYGPPCPSCPFWVLVVVGGVLACYSLLVTVAFIIFWVKRGRKKLLYIFKQPFMRPVQTTQEEDGCSCRFPEEEEGGCEL[not shown - about 120 residues]
notes: Anti-BCMA CAR on primary T cells; also called I09 CAR-T

Molecular target: T1, rBCMA conjugated with AF647
Experiment: flow cytometry of primary T cells transduced with the CAR, stained with labelled recombinant BCMA (sheet: rBCMA-APC, APC-A; text: BCMA-AF647 at 1 ug/ml); untransduced T cells (UT) give 0.61 in the same gate
Experimental: CAR-T cells were labelled with rBCMA conjugated with AF647 (BCMA-AF647) at 1 ug/ml, and fluorescence intensity was measured using flow cytometry. FIG. 3.

| Binder | % BCMA CAR+ cells [%] |
| --- | --- |
| B1 | 99.9 |
| B2 | 93.4 |
| B3 | 99.8 |
| B4 | 99.6 |
